In the supplement of paper PMC10338343:
± gives the standard deviation. Only a part is listed here, and it is no random draw.

test system: MIWI (PIWIL1) piRISC loaded with L1MC piRNA (30 nt); assay: pre-steady-state target cleavage rate (min^-1); MIWI and MILI are mouse PIWI proteins and EfPiwi is from a freshwater sponge; tags in brackets are library labels; higher = faster piRNA-guided slicing of the target; conditions: guide: L1MC piRNA 5'p-UAACUAAAUACUAUGCAAGCUGUAGGUCCU; auxiliary factor: 500 nM mouse GTSF1
How it was run: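 A burst-and-steady-state fit was used to obtain the pre-steady-state cleavage rate. The input data were sequencing reads of uncleaved targets, normalised to depth and to weakly complementary targets, from a […] transcribed, DNA-blocked target RNA library mixed with 1 nM active affinity-purified piRISC holding one synthetic guide, with or without 500 nM GTSF1 partner protein, in HEPES–potassium acetate buffer at 33 °C for 0–8 or 0–960 min. Three trials were pooled and k3 was capped at 0.0001 min^-1.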
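Note: 1 nM active piRISC with 0.1 nM target library at 33 °C single turnover.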

Sequence | pre-steady-state target cleavage rate
UCCUGGAUGUCGUUGCAUAGUAUAUACUUA | < 0.0001
UCCUGGAACUCGUUGCAUAGUAUUUACAAA | 0.0127 ± 0.0048
UCCUCCUACAGCUUGCAUAUGUAUUUAGUUA | 0.0119 ± 0.0066
UCCUGGAUCAGCUUGCAUAGUUUUUACAAA | 0.0207 ± 0.0089
UCCUGGAUGUCGAACGUAAGUAUUUAGUAUA | < 0.0001
UCCUGGAACAGCUUCGAUAGUAUUUAGUUA | 0.288 ± 0.029
UCCUCCUACAGCUUGCAUAGUUAAUAGUAA | 0.0859 ± 0.025
UCCUGGAUGUCGUAGCAUAGUAUUUUGUUA | 0.00924 ± 0.005
UCCUGGAUGUGCUUGCAUAGAAUUAAGUUA | 0.00481 ± 0.0037
UCCUGGAACAGCUUGCUUAGUAUUUACAAA | 0.286 ± 0.063
UGGACCUACAGCUUGGUUAGUAUUUAGAAA | 0.231 ± 0.033
UCCUGGUACAGCUUGCUAAGUAUUUACAAA | 0.00749 ± 0.0048
UGGACCUACAGCUUGCAAUGUAUUUACAAA | 0.0217 ± 0.0068
UCCUGGAACUGCUUGCAUAGUAUUUUCAAA | 0.0751 ± 0.016
UCCACCUACAGCUUGCAUAGUAUAUUCAAA | 0.266 ± 0.039
UCCACCUACAGCUUGCUAGUAUUUAGUUA | 0.0583 ± 0.014
UCCUGCUACAGCUUGCAUAGUAUAAUCAAA [g8:g25:cont:t1A] | 0.319 ± 0.068
UCGACCUACAGCUUGCUAAGUAUUUAGAAA | 0.0434 ± 0.012
UCGACCUACAGCAAGCAUAGUAUUUACAAA | 0.341 ± 0.05

Sequence | pre-steady-state target cleavage rate
UCCUGGAACAGCUAGCAUAGUAUUUACAAA | 0.143 ± 0.023
UCCUGGUACAGGAUGCAUAGUAUUUACAAA | 0.0132 ± 0.0054
UGGACCUACAGCUACCAUAGUAUUUAGUAA | 0.31 ± 0.042
UCCACCUACAGCUUGCAUAGUAUUUUCUAA | 0.361 ± 0.048
UCGACCUACAGCUUGCAUUCUAUUUUCAAA | 0.0716 ± 0.024
UCCUGGAUGAGCUUGCCAUAGUAUUUAGUUA | 0.019 ± 0.0052
UCCUCCUACAGCUUGCAUAGAUAUUAGUUA | 0.0322 ± 0.013
UCCACCAACAGCUUGCAUAGUAUUUACAAA | 0.339 ± 0.047
UCCUGGAUGUCGAACCAUAGUAUAUAGUAA | < 0.0001
UCCUGGAUGUCGAAGGCAUAGUAUUUAGUUA | 0.00396 ± 0.0036
UGGACCUACAGCUUGGUUAGUAUUUUCAAA | 0.00506 ± 0.0032
UCCUGGAUCACCAUGCAUAGUAUUUAGUUA | 0.0303 ± 0.0068
UCCACCUACAGCUUGCAUAGUAUUAAGAAA | 0.351 ± 0.054
UCCUGGAUGUCGUUGCAUUGUAUUUAGUAA | < 0.0001
UCCUGGAACAGCUUGCAUAGUUUUUACAAA | 0.0689 ± 0.022
UCGACCUACAGCUUGCAUAGAUAUUUAGUUA | 0.0768 ± 0.028
AGGACCUACAGCUUGCAAUGUAUUUACAAA | 0.0775 ± 0.019
AGGACCUACAGCUUGCAUAGUUAAUACAAA | 0.199 ± 0.057

same assay, conditions: guide: L1MC piRNA 5'p-UAACUAAAUACUAUGCAAGCUGUAGGUCCU; auxiliary factor: none (no GTSF1)

Sequence | pre-steady-state target cleavage rate
UCGACCUACAGCUUGAAUAGUAUUUAGUUA | 0.0397 ± 0.0067
UCCUGGAUGUCGAACGAUAGAAUAUAGUUA | < 0.0001
UCCUGGAUGAGCUUGGAUAGUAUUUACUUA | 0.00357 ± 0.0031
